# Test results as given in the supplement of paper PMC10441789.
# This is one part of the list. Antibody binding of pooled human sera (four to six donors per pool; dilution not stated) to peptides of the Trypanosoma cruzi antigen TSSA on microarrays. Quantile-normalised fluorescence in arbitrary units, mean of duplicate arrays; higher = more binding. No active / inactive call. The uninfected pools are read here as the healthy donors of the same country. The strongest signals lie near the top of the scale (about 60,000).
# Columns and labels:
# Assay in all cases: antibody binding signal (normalised fluorescence) (arbitrary fluorescence units); higher = stronger serum antibody binding to peptide
# [1] = tested on: pooled sera of chronic Chagas disease patients, Argentina
# Protocol: (§1)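 Microarray of 15-residue peptides over residues 30-55 of Trypanosoma cruzi TSSAII, each with 1 to 10 substitutions at naturally variable positions, probed with one serum pool per country.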
# [2] = tested on: pooled sera of chronic Chagas disease patients, Bolivia
# Protocol: as §1
# [3] = tested on: pooled sera of chronic Chagas disease patients, Brazil
# Protocol: as §1
# [4] = tested on: pooled sera of chronic Chagas disease patients, Colombia
# Protocol: as §1
# [5] = tested on: pooled sera of chronic Chagas disease patients, Mexico
# Protocol: as §1
# [6] = tested on: pooled sera of chronic Chagas disease patients, USA
# Protocol: as §1
# [7] = tested on: pooled sera of uninfected people, Argentina
# Protocol: as §1
# [8] = tested on: pooled sera of uninfected people, Bolivia
# Protocol: as §1
# [9] = tested on: pooled sera of uninfected people, Brazil
# Protocol: as §1
# [10] = tested on: pooled sera of uninfected people, Colombia
# Protocol: as §1
# [11] = tested on: pooled sera of uninfected people, Mexico
# Protocol: as §1
# [12] = tested on: pooled sera of uninfected people, USA
# Protocol: as §1
Sequence,antibody binding signal [1],antibody binding signal [2],antibody binding signal [3],antibody binding signal [4],antibody binding signal [5],antibody binding signal [6],antibody binding signal [7],antibody binding signal [8],antibody binding signal [9],antibody binding signal [10],antibody binding signal [11],antibody binding signal [12]
KKTATGETPSPSGAS,306,478,1270,209,388,3580,417,336,176,180,121,590
TDNKAAAGGTPSQSG,203,190,296,1990,251,873,169,242,1450,258,226,128
GKENKAAAGGTPSQP,824,578,3470,3760,2470,9140,467,93.4,458,140,353,112
GKDKKAAAGEAPSQP,1120,2830,29900,1070,849,7040,121,88.2,82.8,98.9,71,74.8
KDNKAAAGGAPSQSG,245,190,199,736,174,182,325,1110,111,147,88.4,105
ENKTATGETPSPSGA,567,1690,1690,268,196,7650,175,235,196,188,155,614
SGKDKKTATGGAPSQ,1030,286,584,987,704,870,222,91.7,90.8,137,106,91.4
EKKAAAGGAPSQSGA,649,256,307,5190,492,528,163,553,303,121,180,545
TSSTPPSGTDKKTAT,33900,4840,33300,5290,37800,5250,396,103,146,147,729,170
DNKTAAGETPSQPGA,714,4120,32800,602,269,1030,141,920,274,310,321,189
KENKAAAGEAPSQSG,310,5720,21500,165,176,11600,107,143,86.8,119,91.5,94.9
SGTDKKTATGGTPSQ,1850,860,1730,7530,1280,1840,421,185,274,681,424,209
GKDKKTATGEAPSQP,6390,3590,26000,720,842,13300,165,80.5,87.6,80.1,105,89.8
KDKKTATGEAPSQSG,4190,3080,8130,194,214,14100,159,84.5,91.1,85,98.6,85
GKENKTAAGGTPSPP,1140,973,2550,4600,2160,8460,354,86.3,289,151,413,141
TISTPPSGTDNKAAT,37300,44100,50200,1330,9750,16800,964,701,1640,167,289,343
KENKTAAGETPSPPG,195,260,618,1030,258,2160,202,208,160,123,233,983
TPPSGKENKAATGEA,11700,13200,4970,532,2200,5530,1890,1470,316,1150,175,272
TENKTATGEAPSQPG,23600,34900,41500,132,264,22900,191,97.2,271,167,161,116
PPSGTDKKAATGEAP,19700,33600,27800,4690,13500,24800,576,287,283,776,2160,275
GTDKKAATGGTPSQP,459,423,867,3450,703,854,346,183,593,629,733,127
STPPSGTEKKAAAGG,42600,13500,33200,6320,32000,5800,1250,321,226,147,195,338
SGKDKKAATGGTPSP,767,548,298,827,857,1170,152,85,162,287,69.5,106
GTDKKPATGGAPSPS,1250,3280,3210,6740,2020,2860,304,905,149,146,593,202
GKEKKPATGGTPSQS,3060,331,301,1600,1980,2050,173,130,265,108,137,253

Sequence,antibody binding signal [1],antibody binding signal [2],antibody binding signal [3],antibody binding signal [4],antibody binding signal [5],antibody binding signal [6],antibody binding signal [7],antibody binding signal [8],antibody binding signal [9],antibody binding signal [10],antibody binding signal [11],antibody binding signal [12]
SGTDNKPAAGEAPSP,8130,3290,45700,3310,251,18000,130,453,201,168,359,213
DNKAAAGEAPSPSGA,323,617,14500,167,210,10700,152,244,318,176,303,153
TEKKPATGGAPSQPG,2370,526,15200,2320,1680,2500,394,1130,272,354,295,1050
ENKPAAGGTPSQSGA,370,2450,1530,1410,531,463,339,745,1400,414,329,292
SGTDNKPATGETPSQ,35500,33000,41600,1310,343,29900,296,680,351,224,2070,198
PSGKENKPATGEAPS,51600,44700,53000,3660,4460,43400,7750,4550,422,568,653,369
KKAAAGGTPSPSGAS,227,193,206,2130,214,1420,154,94.1,698,121,83.8,198
GKDNKAATGGTPSQP,851,256,1930,1550,1570,1190,280,202,133,249,303,80
PPSGKDKKAAAGETP,938,368,666,1320,34300,2520,185,434,94.9,302,88.7,111
PPSGKDNKPAAGGTP,1030,411,16700,871,14700,12000,497,1040,400,402,181,255
GTDNKPATGEAPSPS,46900,52500,52600,1240,268,39700,896,714,727,172,371,168
GKDNKPAAGGAPSQP,432,233,12100,964,1210,903,215,396,140,150,112,121
SGKDNKAATGETPSQ,1940,1390,22300,595,495,11500,192,351,131,327,114,115
TDKKTAAGETPSPSG,323,306,312,339,337,3000,125,195,352,587,388,1970
NKPATGGTPSPPGAS,444,952,2870,271,400,278,799,1670,874,1260,232,1740
SGTDNKPAAGEAPSQ,6840,17400,41100,2500,230,15900,114,608,280,209,296,161
GKEKKPAAGEAPSQP,7940,5020,30800,3210,3410,11900,113,86.6,92.1,81.8,82.6,275
TDNKTATGGAPSPPG,515,429,489,555,320,653,312,349,362,146,199,162
SGKENKAATGETPSP,4590,6050,24700,1710,1790,17200,7260,3110,169,707,484,1080
PSGKDNKTAAGGTPS,3450,672,3270,9270,7200,4740,270,143,202,139,331,140
TEKKPATGEAPSPPG,47000,44600,47300,415,380,40500,908,548,402,282,234,495
TPPSGTENKTAAGGA,44700,41800,47500,441,1680,17000,3440,503,940,536,371,637
GTDKKPATGEAPSQS,47700,44700,49900,6580,479,40700,945,685,316,271,697,167
GKDKKTAAGETPSQS,396,242,290,832,836,1130,112,118,82.7,156,76.5,77.8
PPSGTEKKPATGGAP,35800,9550,32300,950,5830,6300,1570,1600,449,513,375,1110
